± gives the standard deviation of the averaged measurements. The list shows a part of the results.
tested on: PfAP2-G AP2 domain (GST-tagged); experiment: gcPBM binding intensity (ln(normalized median fluorescence intensity)); higher = stronger DNA binding
In short: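 The binding buffer was 1× PBS containing 1% milk, 0.2 mg/ml BSA, 0.5% salmon testes DNA and 0.03% Triton X-100. In it, GST-tagged P. falciparum DNA-binding domains expressed in E. coli were applied for 1 h to an Agilent 4 × 180k array of primer-extended double-stranded 36-bp intergenic genomic probes plus negative controls. Binding intensity, read with Alexa488 anti-GST antibody and a 488 nm scan, is the highest Masliner-normalised natural-log median intensity across replicate spots of either probe orientation.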

| Sequence | gcPBM binding intensity (ln) |
| --- | --- |
| GTATAACTTTTGCGCGTACACACATTTATCCTCTTT [CACACA_site208] | 11.7 ± 0.86 |
| TTTCTTTTTTTATAATCCACATTGGGAAAATCAAAA [TGCATGCA_negctrl_site159] | 10.1 ± 0.37 |
| ACGTATAATATGTACACACACATATATACAAAAAAA [CACACA_site917] | 11.5 ± 1.1 |
| TTTTTTTTTTTTTATTGTACTTATTTTTTTATGTTT [XGTACX_site7725] | 11.4 ± 1.1 |
| GTATTATATATATAGGTGCATATATATATATAAATA [GTGCAC_site9787] | 9.96 ± 0.16 |
| AAATATAAAGGATTAATATTATATATATATATATAT [XGTACX_negctrl_site211] | 9.9 ± 0.42 |
| TAAATAAATTTATACACACACACACGGATATAAATA [CACACA_site6532] | 10.2 ± 0.15 |
| TATAAATATTTATACACACACATATATTTATATATC [CACACA_site6366] | 10.07 ± 0.092 |
| ACACATACATATACATACACATTGTTTTCATGCATC [XGTACX_negctrl_site126] | 10.22 ± 0.057 |
| TATATGTGTCTACAGGTGCATATATCATATATTGCT | 9.865 ± 0.007 |
| ATTTTTTTTTTTTTTTTTTTTTTGTTTATACAAAAT [CACACA_negctrl_site1241] | 9.71 ± 0.11 |
| TATATACATACATGTAGTACCTAATTCGGTCCCGTA [XGTACX_site2702] | 11.3 ± 0.71 |
| TTTCATTTAGCTTTTACACACTATATATTATTGATT [CACACA_site16] | 9.82 ± 0.11 |
| TATGTATTTTTATGCACACATGCGTGGCTTATATAA [CACACA_site387] | 10.2 ± 0.15 |
| ATATTTTCTTTAAATTGTACATATTGTGATACAAAA [XGTACX_site5886] | 11 ± 0.59 |
| GTATTTATATGATTAACACACATATGGGTATTAATA [CACACA_site4853] | 10.1 ± 0.16 |
| TATACCTGAATTAAAAGTACATGTATATATTTTCCC [XGTACX_site3594] | 11.2 ± 0.7 |
| ATAATTTTTTAAGTGTGTACTAAAATGTGTATTTTA [XGTACX_site6227] | 11.3 ± 0.85 |
| ATAATATTAATATGTACACACCTTAATCCTTAAAAG [CACACA_site7640] | 11.4 ± 0.86 |
| TAACAAAAAGGGAACACATGCGCTCTTTATTTATTT [TGCATGCA_site620] | 10.14 ± 0.064 |
| TATAGAAGCATTCACACACACACATACATACACATA [CACACA_site1466] | 10.1 ± 0.28 |
| TTGCATTTTCTAGTAACACACAATTAGCGTTGCTGT [CACACA_site3594] | 9.83 ± 0.028 |

| Sequence | gcPBM binding intensity (ln) |
| --- | --- |
| AGAGAGAAAGCTATAACATGCAACAATTTTTAGAAC [TGCATGCA_site596] | 9.79 ± 0.14 |
| AAATTATTTATTTTATGTACATATTATTAAAGTTAA [XGTACX_site552] | 11.3 ± 0.78 |
| TATTATAGAAATTTAATGTTGGACAAAAAAATGAAA [CACACA_negctrl_site1351] | 10.7 ± 0.48 |
| TCTTAATATCGTTTCTCACACATATACAAACATAAA [CACACA_site5700] | 10.2 ± 0.21 |
| AATATATGAATTATATGTACATATAGATAAGTCACA [XGTACX_site7637] | 11.1 ± 0.69 |
| ATCTATATTTAATTTACACACAAAAAAAATTGTTGG [CACACA_site6582] | 10.04 ± 0.064 |
| AAAATGTGATATGTAAATATATATGTATGTATATAT [CACACA_negctrl_site1748] | 9.825 ± 0.064 |
| TAATGCATTTTCGCATGTACATATTTCTCTTTATAT [XGTACX_site8915] | 11.1 ± 0.71 |
| ATAAATGACAAATTAACACACATATATTATAGATAT [CACACA_site7770] | 9.795 ± 0.049 |
| TTTCTTTTTTTTTTTTTTTTTTTTTTTTTTTTTTTT [TGCATGCA_negctrl_site91] | 11.2 ± 0.61 |
| ACAAAAATAAACTATAGTACACACTTATTATTATGA [XGTACX_site5680] | 11.1 ± 0.59 |
| TCATTTTATTTTTTCACACACACATCTATATTTATA [CACACA_site7547] | 10.1 ± 0.11 |
| TAAGTAACTTTTAAAAGTACCCACACATATATATAT [XGTACX_site1231] | 11.4 ± 0.77 |
| TTTCCCTTGTTGTAAACATGCACAATATTTAGGTAT [TGCATGCA_site49] | 10.1 ± 0.23 |
| AAAAAAAAGAAAAACACACACATATATATATAGAAT [CACACA_site1006] | 9.72 ± 0.12 |
| TATATTTATAGGTATACACACATATGTATGTTATGT [CACACA_site7824] | 10.2 ± 0.16 |
| TTATGTATTTATATAAATATAAATATATATATATAT [CACACA_negctrl_site774] | 9.63 ± 0.057 |
| ATACATATAAATAATTGTACTATTAAAAAAGAACGT [XGTACX_site3751] | 10.9 ± 0.52 |
| TATATATATATATGTTGTACAAAAATGTAAAATATA [XGTACX_site7761] | 11.1 ± 0.57 |
| AAAAAAAAAAATACTCGTACATAAACCTATACATTT [XGTACX_site6494] | 11 ± 0.47 |
| CAATTAGCATTTTATTGTACATTTATAATCTATGAT [XGTACX_site1445] | 10.8 ± 0.46 |
| CTTAGAATATATGAATGTACTTTTTTTTTTAAATAA [XGTACX_site6048] | 11.3 ± 0.95 |

| Sequence | gcPBM binding intensity (ln) |
| --- | --- |
| ATAATATATTTTTGTAGTACACTTCTGGTAATATCG [XGTACX_site2402] | 11.7 ± 1 |
| AGTATACAGATATATACACACATATATATATATATA [CACACA_site4323] | 10 ± 0.45 |
| ATATATTATTTCTAGTGTACATACCCATATATAATA [XGTACX_site8902] | 11.2 ± 0.69 |
| AATCCACTTTTTTATGTTATACAATATAAATTAAAT [XGTACX_negctrl_site446] | 10 ± 0.23 |
| ATTTAAGAAAAAAGTTGTACTTATTTATTTTTATTT [XGTACX_site5561] | 11.4 ± 0.91 |
| GGCTAAAAGGGGCACACACACAAAAAAAAAAAAAAA [CACACA_site3288] | 10.9 ± 0.86 |
| ATAAATAAGATATATACACACATATCTATACATATT [CACACA_site6369] | 9.74 ± 0.14 |
| TAAAAAATAAATATATGTACATATTTATTTTTTTTT [XGTACX_site850] | 11.2 ± 0.81 |
| ATATTTTTTTTTTCGTGTACGCATAAATATATCTAA [XGTACX_site3360] | 11.6 ± 0.95 |
| ATTGAATTCCAACTGGTGCACCAGTAAGATTGAAAA [GTGCAC_site9895] | 10.4 ± 0.2 |
| TAGATAAACAAGAAATGTACAAACGTAAATATGTTC [XGTACX_site2373] | 10.6 ± 0.29 |
| GGAAACAAAAAATATATACACACTAAACATAAAAAA [CACACA_site20] | 9.91 ± 0.071 |
| TCATAGTAGAAACACACACACACACCCATATATATA [CACACA_site1737] | 9.98 ± 0.13 |
| AACGCACATATATTTATGTATATATATATATATATA [GTGCAC_negctrl_site478] | 9.97 ± 0.42 |
| GTTATTAAACAGAAAAGTACATATGTATATTAAAAT [XGTACX_site3724] | 11.2 ± 0.76 |
| TTATTAAATAAAATCATGCACACAATATATATTTTA [CACACA_site2496] | 9.87 ± 0.099 |
| TTATTACATAACAATATACACACTATTGATTAAAGA [CACACA_site2933] | 9.82 ± 0.042 |
| TAAAAAAAAAGAAGCTGTACTAAAAAATTTATATTA [XGTACX_site7408] | 11.1 ± 0.81 |
| ATAAATATGTAAAAAACATGCAAAAAATTAAAGACA [TGCATGCA_site912] | 9.99 ± 0.057 |
| ATATATATATAATTTGTACACACAAATATGCATATA [CACACA_site9136] | 11.3 ± 0.88 |
| AAGAAAAACAATGAGATAAAGAAGAGAAAATATGTC [TGCATGCA_negctrl_site415] | 9.92 ± 0.21 |
| AAATTCATAAAAATATTTTATAATTATATATAGAAT [TGCATGCA_negctrl_site343] | 9.7 ± 0.042 |

| Sequence | gcPBM binding intensity (ln) |
| --- | --- |
| GGGTTTTTTATTAATACATGCATGGAAACGCACTAT [TGCATGCA_site1000] | 10.2 ± 0.28 |
| AGTGGAATGTATGATTTTCATTCCTTAAAATTTTAA [GTGCAC_negctrl_site521] | 9.76 ± 0.16 |
| TATATATATGTAAATCGTACAAATTATATATATCAT [XGTACX_site2821] | 10.9 ± 0.47 |
| TATATCTCATAGTATACACACACACCCACCCACATA [CACACA_site8513] | 10.5 ± 0.31 |
| TAATTTTCTTTTTATCGTTTTTTTTTTTTTTTTTTT [XGTACX_negctrl_site432] | 10.7 ± 0.71 |
| CATTATGTTGTAAATACACACATACATATACATACA [CACACA_site8143] | 10.2 ± 0.2 |
| AATACTAAAAAGTGTACACATACATAAAAAATTGCA [CACACA_site5620] | 11.6 ± 0.87 |
| AAGAAAAAAGTTATTAGTACACATTATAATAAAAAG [XGTACX_site3527] | 11.4 ± 0.72 |
| TATTGATTTATAAACACACACTCGAAGATGTTTAAC [CACACA_site4760] | 9.875 ± 0.007 |
| GGGTATACAAATAAACGTACAAACTCATAAAAAAAA [XGTACX_site3191] | 11.3 ± 0.7 |
| ATAAAATGATAAATTTGTACACAAAAAAAAAAAAAA [XGTACX_site964] | 11.2 ± 1 |
| AAAATAAAATATTTCTGTACTTATAACTATTCTATA [XGTACX_site8007] | 11.2 ± 0.71 |
| CATATATAACAATTCTCACACATAAAAAAAAAAAAT [CACACA_site4564] | 9.99 ± 0.28 |
| TTAAAAAAATATAATACACACCAAAAATATGCACAT [CACACA_site5209] | 10.2 ± 0.2 |
| TAATAATTTATAATAGTGCATTTGATTTTAAAAATA | 9.865 ± 0.035 |
| TTTTTATGGTAAATAAAAATATCTCCCTCCTTAATT [CACACA_negctrl_site1352] | 9.91 ± 0.18 |
| ATATATATATATATATGTACATATATTTATTTATTG [XGTACX_site6267] | 11.2 ± 0.63 |
| CATTTATTTTTGTTCTGTACATAAAGATGAACAAAA [XGTACX_site6797] | 11.1 ± 0.83 |
| ATTTACATAAATTGCATATATCGATGTAAATAAATA [CACACA_negctrl_site1150] | 9.725 ± 0.092 |
| TCTTTTTAAACTAATAGTACATATATATTAATAAAT [XGTACX_site4217] | 11 ± 0.73 |
| AAATAATAAAAAAAATGTACACGTAAATATTATATT [XGTACX_site8125] | 11.5 ± 0.92 |
| TTTTATATAAAATCGTGTACATACCATTTCCTATTA [XGTACX_site5159] | 11.5 ± 0.81 |

From the supplement of paper PMC11417369
